According to PubChem BioAssay AID624418 (National Center for Advancing Translational Sciences (NCATS), 2012):
In all, about 410,000 compounds went through this assay and about 530 (0.13%) were called active. The inconclusive results got no clear call from the source; some entries with a clear call stand among them for comparison. The call rests on the fitted dose curve; in most records, active means well fitted inhibition curve with a large enough effect; inconclusive means small, poorly fitted or top-dose-only effect, or another doubt; inactive means no such curve, though single readings can be large or run the other way. Potencies of inconclusive entries are doubtful fits and often do not repeat.

Assay: qHTS of GLP-1 Receptor Inverse Agonists: Cytotox Screen
Settings: HEK293 cAMP-luciferase reporter cells, luminescence, 24 h; series mostly up to 38.3 µM
How it was run: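 Seeding density was 200 cells/uL; after overnight-length (12 h) culture, 23 nL compounds went on for 24 h at 37 °C. Readout used a luciferase detection reagent, luminescence taken after 12 min at room temperature.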
Potency means the concentration at half of the fitted maximal effect.

Row | SMILES | Potency
1 | Cc1ccc(NC(=S)Nc2ccc(Cl)c(Cl)c2)c(OC(F)F)c1 | inconclusive: 28.2 µM [inhibitor, single point]
2 | COc1ccc2ccccc2c1CN1CCN(C(=O)c2ccco2)CC1 | inconclusive: 11.2 µM [inhibitor, single point]
3 | O=C1c2oc3ccccc3c(=O)c2C(c2cccc(O)c2)N1c1nncs1 (centres undefined) | inconclusive: 28.2 µM [inhibitor, single point]
4 | C/C(Cl)=C\Cn1c(O)c(N=NC(N)=S)c2ccccc21 | active: 1.58 µM
5 | FC(F)(F)c1cnc2c(-c3ccccc3)n[nH]c2c1 | inactive
6 | COc1cc(NC(=O)/C=C/c2ccccc2[N+](=O)[O-])cc(OC)c1 | inactive
7 | Cc1c(C(=O)NCc2cccnc2)oc2ccc(S(=O)(=O)N3CCCCC3)cc12 | inconclusive: 7.94 µM [inhibitor, partial curve]
8 | CSc1ccc(Cl)c(C(=O)Nc2ccc(C)cn2)c1 | inconclusive: 10 µM [inhibitor, partial curve]
9 | O=C(N/N=C/c1ccc(Br)s1)c1cccs1 | inactive
10 | COc1ccccc1-n1cnnc1SCC(=O)NC1CCCCC1 | inactive
11 | COc1cc(C(=O)Nc2ccc(NC(=O)c3ccc(C(C)(C)C)cc3)cc2)cc(OC)c1OC | inconclusive: 7.94 µM [inhibitor, partial curve]
12 | COc1ccc(C(=O)COC(=O)c2cc([N+](=O)[O-])ccc2N2CCOCC2)c(OC)c1 | inconclusive: 10 µM [inhibitor, partial curve, poor fit]
13 | O=C(CCCCl)NC(=S)Nc1cc(C(F)(F)F)ccc1N1CCOCC1 | inconclusive: 28.2 µM [inhibitor, single point]
14 | CCOC(=O)CNC(=O)COc1coc(CN2CCN(Cc3ccccc3)CC2)cc1=O | inactive
15 | COc1cccc(N/C(SCc2ccccc2F)=C(/C#N)C(=O)NCc2cccs2)c1 | inactive
16 | Cc1ccc(-n2c(SCC(=O)NCc3ccco3)nc3c(sc4ccccc43)c2=O)cc1 | inconclusive: 28.2 µM [inhibitor, single point]
17 | N#C/C(=C(/O)COC(=O)CCc1ccc(S(=O)(=O)N2CCOCC2)cc1)c1nc2ccccc2[nH]1 | inconclusive: 31.6 µM [inhibitor, single point]
18 | Cc1nc(N2CCCCC2)sc1C(=O)c1cccc([N+](=O)[O-])c1 | inconclusive: 8.91 µM [inhibitor, partial curve, poor fit]
19 | CC1=C(C(=O)OC2CCCCCCC2)C(c2cc3c(cc2Br)OCO3)CC(=O)N1 (centres undefined) | inconclusive: 5.62 µM [inhibitor, partial curve]
20 | C=C(C)Cn1c(=S)[nH]c2ccccc2c1=O | inconclusive: 28.2 µM [inhibitor, single point]
21 | C#CCOc1ccc(C2C3=C(COC3=O)Nc3cc4c(cc32)OCO4)cc1OC (centres undefined) | inconclusive: 0.501 µM [inhibitor, full curve, poor fit]
22 | CN1CCC(=C(c2ccccc2)c2ccc(Br)cc2)CC1 | inconclusive: 28.2 µM [inhibitor, single point]

Row | SMILES | Potency
23 | CC1(C)CC(=O)C2=C(C1)NC1=C(C(=O)c3ccccc31)C2c1ccc(Cl)cc1 (centres undefined) | inconclusive: 10 µM [inhibitor, single point]
24 | C=CCc1cccc(/C=N/NC(=O)CNc2ccccc2)c1O | inconclusive: 5.62 µM [inhibitor, partial curve, poor fit]
25 | CCOc1ccc(S(=O)(=O)Nc2ccccc2C(=O)NCC2CCCO2)cc1 (centres undefined) | inactive
26 | COc1cccc(CC(=O)Nc2ccc(-c3csc(C)n3)cc2)c1 | inconclusive: 11.2 µM [inhibitor, single point]
27 | COCC(=O)N/N=C\c1ccc(OC/C=C/c2ccccc2)c(OC)c1 | inconclusive: 12.6 µM [inhibitor, partial curve, poor fit]
28 | CC(C)c1ccc(/C=C/C(=O)NC(=S)Nc2ccc(CN3CCOCC3)cc2)cc1 | active: 10 µM
29 | CC[n+]1cc(C)ccc1/C=C/c1ccc(N(C)C)cc1 | inconclusive: 22.4 µM [inhibitor, partial curve, poor fit]
30 | COc1cc(C(=O)NCC(=O)N2CC=C(c3ccccc3)CC2)cc(OC)c1OC | inconclusive: 28.2 µM [inhibitor, single point]
31 | O=C(O)CC(CCc1ccccc1)OC1OC(CO)C(O)C(O)C1O (centres undefined) | inactive
32 | COc1ccc(C(=O)CSc2nc(C(C)(C)C)nc3ccccc23)cc1 | inactive
33 | OC(c1cccc(Cl)c1)c1nc(/C=C/c2ccc(C(F)(F)F)cc2)cs1 (centres undefined) | inconclusive: 28.2 µM [inhibitor, single point]
34 | CN1/C(=C\C(=S)NC(=O)c2ccc([N+](=O)[O-])cc2)C(C)(C)c2ccccc21 | inconclusive: 31.6 µM [inhibitor, single point]
35 | Cc1ccccc1N1CCN(C(=O)C2CCCCC2)CC1 | inactive
36 | CN(C)S(=O)(=O)c1ccc(C(=O)NCCOc2ccc(F)cc2)cc1 | inactive
37 | O=C1Nc2cc(C(=O)NCCN3CCCCCC3)ccc2S/C1=C/c1ccccc1F | inconclusive: 11.2 µM [inhibitor, single point]
38 | COC(=O)c1cc(NC(=O)CC2CCCC2)cc(C(=O)OC)c1 | inconclusive: 2.51 µM [inhibitor, partial curve, poor fit]
39 | COc1cc(C2=NC(CO)(CO)CO2)cc(OC)c1OC | inconclusive: 28.2 µM [inhibitor, single point]
40 | CC1=Nc2cc(C(=O)NCC3CCCO3)ccc2Sc2ccc(C)cc21 (centres undefined) | inconclusive: 0.501 µM [inhibitor, full curve, poor fit]
41 | COCCN1C=C2C(=O)C(C)(OC(=O)CCC(=O)OC)C(=O)C(Br)=C2C=C1c1ccc(OC)cc1 (centres undefined) | inactive
42 | CC(C)CNC(=O)[C@H]1N2C(=O)c3ccccc3C2SC1(C)C (some centres undefined) | inactive
43 | COc1ccc(CNC(=O)C(c2ccc(C)cc2)N(Cc2cccs2)C(=O)c2ccc3c(c2)OCCO3)cc1 (centres undefined) | inconclusive: 11.2 µM [inhibitor, single point]
44 | Cc1cc(C)c(C2C3=C(Nc4c2c(C)nn4-c2ccccn2)c2ccccc2C3=O)c(C)c1 (centres undefined) | inconclusive: 3.16 µM [inhibitor, full curve, poor fit]
